The supplement of paper PMC12217912
This is one part of the list. The full chains were built here from the parent and the listed change. Values near 0.05 are background.

B1: TEV protease; numbered along this chain (parent)
chain: MGESLFKGPRDYNPISSSICHLTNESDGHTTSLYGIGFGPFIITNKHLFRRNNGTLVVQSLHGVFKVKDTTTLQQHLVDGRDMIIIRMPKDFPPFPQKLKFREPQREERICLVTTNFQTKSMSSMVSDTSCTFPSGDGIFWKHWIQTKDGQCGSPLVSTRDGFIVGIHSASNFTNTNNYFTSVPKNFMELLTNQEAQQWVSGWRLNADSVLWGGHKVFMVKPEEPFQPVKEATQL

Variants of: B1
Test: raw area under fraction-flipped curve 0-4 h after induction (AUC4h, not background-subtracted), DNA-recorder readout of cleavage of the substrate (dimensionless); higher = more cleavage of the substrate by the protease variant
Details: temperature: 34 °C; time window: 0-4 h after rhamnose induction
Description: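 In vivo DNA recorder in E. coli TOP10(DE3) ΔrhaA at 34 °C. Each TEVp single-site mutant (parent TEVp 0) is paired with a single-site variant of the 7-mer TEVs (canonical ENLYFQ|S). The substrate sits between flexible linkers in a Bxb1-sfGFP-TEVs-SsrA fusion, so cleavage stabilises Bxb1 and speeds flipping of a recombination array, read by NGS. The value is the raw area under the fraction-flipped curve over 0-4 h after rhamnose induction (AUC4h), with ≥20 reads per time point. It is not background-subtracted; inactive controls average about 0.047.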
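Further: Bxb1 expression induced with 0.2% (w/v) L-rhamnose at OD600 near 0.5, cultures sampled hourly, flipped fraction per protease–substrate barcode pair counted by paired-end Illumina sequencing.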

| Variant | area with substrate ENLYFQC | area with substrate ENLYFQD | area with substrate ENLYFQG | area with substrate ENLYFQH | area with substrate ENLYFQI | area with substrate ENLYFQK | area with substrate ENLYFQL | area with substrate ENLYFQM | area with substrate ENLYFQN | area with substrate ENLYFQP | area with substrate ENLYFQQ | area with substrate ENLYFQR | area with substrate ENLYFQS | area with substrate ENLYFQT | area with substrate ENLYFQV | area with substrate ENLYFQW | area with substrate ENLYFQF | area with substrate ENLYFQY | area with substrate ENLYFQE |
| --- | --- | --- | --- | --- | --- | --- | --- | --- | --- | --- | --- | --- | --- | --- | --- | --- | --- | --- | --- |
| N53A | 0.0878 | 0.0731 | 0.0798 | 0.0827 | 0.0556 | 0.0767 | 0.0562 | 0.0889 | 0.0807 | 0.053 | 0.0617 | 0.0685 | 0.0934 | 0.0689 | 0.0691 | 0.0561 | – | – | – |
| V57K | 0.132 | 0.0785 | 0.105 | – | 0.056 | 0.0438 | 0.058 | – | – | – | – | 0.0642 | 0.108 | 0.0644 | – | 0.0758 | 0.0463 | 0.0712 | – |
| V57T | 0.116 | 0.0722 | 0.0983 | 0.0874 | 0.063 | – | 0.0502 | 0.129 | 0.0501 | – | – | 0.0486 | 0.103 | 0.0723 | – | 0.0612 | 0.0876 | 0.0676 | – |
| H62N | 0.109 | – | 0.115 | – | 0.0427 | 0.0644 | – | – | 0.0776 | – | – | 0.0536 | 0.104 | 0.0753 | – | 0.0583 | – | – | – |
| G63M | 0.0778 | – | – | 0.0827 | 0.0748 | – | 0.0424 | 0.0662 | – | 0.0403 | – | 0.0654 | 0.0885 | 0.0649 | – | 0.0352 | – | 0.076 | – |
| K66R | 0.127 | 0.0779 | – | – | 0.0298 | – | – | – | 0.0659 | – | – | 0.0713 | 0.114 | 0.0574 | 0.0788 | 0.0676 | – | 0.0953 | – |
| T72P | 0.0755 | 0.0623 | 0.0687 | 0.0805 | 0.0472 | 0.0675 | 0.0613 | 0.0732 | 0.0652 | 0.0473 | 0.0525 | – | 0.0787 | 0.0366 | 0.0568 | – | 0.0588 | 0.0714 | – |
| H76E | 0.0938 | 0.0648 | 0.0802 | 0.0649 | 0.0505 | 0.0622 | – | 0.0775 | 0.0653 | 0.0543 | 0.0464 | 0.0384 | 0.0793 | – | 0.0536 | 0.0685 | – | 0.0636 | – |
| L77T | 0.0764 | – | 0.0763 | 0.072 | – | – | 0.056 | 0.0591 | 0.0606 | – | 0.0656 | 0.067 | 0.0684 | 0.0619 | 0.0597 | 0.0592 | – | – | – |
| V78A | 0.0965 | – | – | 0.0582 | 0.053 | – | 0.0555 | 0.0755 | – | 0.0513 | – | 0.0546 | 0.0705 | 0.0526 | – | 0.0574 | 0.0614 | 0.0471 | 0.0613 |
| R81I | 0.138 | 0.0716 | – | 0.0898 | 0.0496 | 0.0585 | 0.0675 | 0.0771 | 0.0711 | 0.0686 | – | – | 0.115 | – | 0.07 | 0.0504 | – | 0.0775 | – |
| I85C | 0.0926 | 0.0614 | – | 0.0683 | 0.0668 | – | 0.051 | 0.0685 | 0.0436 | 0.0441 | – | 0.0573 | 0.0797 | 0.0601 | – | 0.0581 | 0.081 | 0.0586 | – |
| I85K | 0.0641 | – | – | 0.0312 | – | – | 0.0527 | 0.0703 | – | 0.0473 | 0.0484 | 0.0353 | 0.0571 | 0.0622 | 0.0366 | 0.0511 | 0.0467 | – | 0.06 |
| I86F | 0.11 | – | 0.0851 | 0.0751 | 0.0546 | – | 0.0479 | – | 0.0641 | 0.0488 | – | 0.0488 | 0.0927 | – | – | 0.0811 | 0.0661 | 0.071 | 0.0416 |
